Results taken from the supplement of paper PMC4604168 (melanoma cell lines).
The list shows a part of the results. Single values are uncertain, as repeats are few or missing.

Each compound was assayed on WM1716 (assay: cell count relative to DMSO control; melanoma cells; higher = more viable cells). Details: library dose: standard library concentration; 72 h.
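Also: cells treated in 1,536-well plates, then fixed and DAPI-stained, with nuclei counted from automated high-throughput microscope images.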

Row | Structure (SMILES) | cell count [%]
1 | CC1(C)CCC(c2ccc(Cl)cc2)=C(CN2CCN(c3ccc(C(=O)NS(=O)(=O)c4ccc(N[C@H](CCN5CCOCC5)CSc5ccccc5)c(S(=O)(=O)C(F)(F)F)c4)cc3)CC2)C1 + c1cc(-c2cnn3cc(-c4ccc(OCCN5CCCCC5)cc4)cnc23)ccn1 [Dorsomorphin] (first compound 2 µM, partner dose 2 µM) | 56.1
2 | Cc1ccc(Nc2nccc(N(C)c3ccc4c(C)n(C)nc4c3)n2)cc1S(N)(=O)=O [Pazopanib] + CO[C@@H]1[C@H](N(C)C(=O)c2ccccc2)C[C@H]2O[C@]1(C)n1c3ccccc3c3c4c(c5c6ccccc6n2c5c31)C(=O)NC4 [Midostaurin] (first compound 2 µM, partner dose 0.4 µM) | 46
3 | O=C(/C=C/c1cccnc1)NCCCCC1CCN(C(=O)c2ccccc2)CC1 + CO[C@@H]1[C@H](N(C)C(=O)c2ccccc2)C[C@H]2O[C@]1(C)n1c3ccccc3c3c4c(c5c6ccccc6n2c5c31)C(=O)NC4 [Midostaurin] (first compound 0.05 µM, partner dose 0.4 µM) | 37.2
4 | Cc1ccc(Nc2nccc(N(C)c3ccc4c(C)n(C)nc4c3)n2)cc1S(N)(=O)=O [Pazopanib] + Oc1nc(-c2ccc(C(F)(F)F)cc2)nc2c1CSCC2 [XAV939] (first compound 2 µM, partner dose 10 µM) | 48.8
5 | CC1(C)CCC(c2ccc(Cl)cc2)=C(CN2CCN(c3ccc(C(=O)NS(=O)(=O)c4ccc(N[C@H](CCN5CCOCC5)CSc5ccccc5)c(S(=O)(=O)C(F)(F)F)c4)cc3)CC2)C1 + Cc1ccc(Nc2nccc(N(C)c3ccc4c(C)n(C)nc4c3)n2)cc1S(N)(=O)=O [Pazopanib] (first compound 2 µM, partner dose 2 µM) | 49
